Test results: PMC4336329 (PLoS ONE, 2015)
Hit rate of the full screen: of about 310,000 compounds, about 2,200 (0.71%) showed an effect of 50% or more. Effects have a minus sign here. This is one part of the list.

target: human ether-à-go-go-related gene (hERG) potassium channel (human, UniProt Q12809); test: primary screen, population patch clamp on CHO cells stably expressing hERG
Sequence (Q12809 whole entry, looked up): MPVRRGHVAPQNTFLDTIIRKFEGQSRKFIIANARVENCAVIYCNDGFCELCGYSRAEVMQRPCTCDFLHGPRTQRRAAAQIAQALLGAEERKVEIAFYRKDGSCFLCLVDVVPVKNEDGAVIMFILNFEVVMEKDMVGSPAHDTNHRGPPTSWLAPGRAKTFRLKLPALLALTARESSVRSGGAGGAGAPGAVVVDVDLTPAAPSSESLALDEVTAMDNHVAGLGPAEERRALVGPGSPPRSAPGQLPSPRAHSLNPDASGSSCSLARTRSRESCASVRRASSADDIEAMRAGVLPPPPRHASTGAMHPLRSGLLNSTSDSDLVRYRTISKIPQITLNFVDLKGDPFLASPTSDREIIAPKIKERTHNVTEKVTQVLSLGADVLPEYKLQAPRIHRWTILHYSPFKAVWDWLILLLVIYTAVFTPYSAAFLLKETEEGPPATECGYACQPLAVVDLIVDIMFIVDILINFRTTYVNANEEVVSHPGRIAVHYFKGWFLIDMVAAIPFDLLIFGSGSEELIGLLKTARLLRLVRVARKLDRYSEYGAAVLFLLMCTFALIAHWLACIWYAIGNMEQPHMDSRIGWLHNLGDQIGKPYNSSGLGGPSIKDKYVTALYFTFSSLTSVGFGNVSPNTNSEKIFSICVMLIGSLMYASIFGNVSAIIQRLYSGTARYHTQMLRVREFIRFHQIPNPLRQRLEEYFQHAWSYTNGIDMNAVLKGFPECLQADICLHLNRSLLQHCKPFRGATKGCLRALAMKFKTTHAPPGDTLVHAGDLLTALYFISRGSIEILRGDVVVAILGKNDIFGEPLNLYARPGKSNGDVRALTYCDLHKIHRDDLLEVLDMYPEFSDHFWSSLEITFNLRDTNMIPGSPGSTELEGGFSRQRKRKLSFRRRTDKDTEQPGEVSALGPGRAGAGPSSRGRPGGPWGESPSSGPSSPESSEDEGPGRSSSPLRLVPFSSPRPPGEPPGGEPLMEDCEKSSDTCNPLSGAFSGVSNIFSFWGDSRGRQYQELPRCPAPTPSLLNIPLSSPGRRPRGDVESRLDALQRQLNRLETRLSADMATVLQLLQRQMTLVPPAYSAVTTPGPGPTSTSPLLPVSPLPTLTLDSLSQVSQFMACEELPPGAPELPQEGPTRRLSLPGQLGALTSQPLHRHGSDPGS

| SMILES | hERG current change (%, negative = inhibition) at 1uM |
| --- | --- |
| CCOc1cc2c(cc1OCC)-n1cccc1C(c1cccc(F)c1F)NC2.Cl (stereo not shown) | 8.61% |
| Cc1ccc(S(=O)(=O)Nc2cccc(C(=O)N3CCC(C(N)=O)CC3)c2)cc1 | 6.61% |
| CC1CCN(Cc2c(C(=O)N/N=C/c3ccc(C(F)(F)F)cc3)nnn2-c2nonc2N)CC1 | 9.75% |
| CCOC(=O)CC(=O)CSc1nc(-c2ccccc2)cc(-c2ccc(Cl)cc2)c1C#N | 9.5% |
| COc1cccc(C(=O)NCC(=O)N/N=C/c2ccc3c(c2)OCO3)c1 | 18% |
| O=C(NCCC1CCCCN1S(=O)(=O)c1ccc(Cl)cc1)C(=O)NCc1ccco1 (stereo not shown) | 4.17% |
| Cc1ccc2c(c1N)C(=O)c1ccccc1C2=O | 13.6% |
| CCc1ccc(-c2nnn(CC(=O)N(C3CCCC3)C3CCS(=O)(=O)C3)n2)cc1 (stereo not shown) | 10.5% |
| CCCc1ccc(C(=O)NNc2cccc(C)c2)cc1 | 11.8% |
| Cc1ccc(NC(=O)CNc2cccc(S(=O)(=O)N3CCCC3)c2)cc1F | 15.5% |
| O=C(CN(c1ccc(F)cc1)S(=O)(=O)c1ccc2c(c1)OCCO2)NCc1ccccn1 | 4.73% |
| CCC1(c2ccc(Cl)cc2)NC(=O)N(Cc2ccc(C(=O)OC)cc2)C1=O (stereo not shown) | 5.45% |
| CC1CCN(C(=O)c2cc(-c3ccccc3O)on2)CC1 | 15% |
| O=C(NCc1ccccn1)C1CC(c2ccc(Cl)c(Cl)c2)=NO1 (stereo not shown) | 11.8% |
| Cc1ccccc1C1C(C#N)=C2N=C(N)c3c(sc4c3CCCCC4)N2C2=C1C(=O)CCC2 (stereo not shown) | 3.55% |
| CCC(C)NC(=O)Cn1cc(S(=O)(=O)N2CCN(c3ccccc3F)CC2)c2ccccc2c1=O (stereo not shown) | 14.4% |
| Cc1ccc(C)c(NC(=O)CN2C(=O)c3ccccc3C2=O)c1 | 12.8% |
| Cc1ccc(Nc2nc(-c3sc(NC(=O)c4ccc([N+](=O)[O-])cc4)nc3C)cs2)cc1 | 15.9% |
| CCC1=Nc2cc(C(=O)NCCCN3CCN(C)CC3)ccc2Sc2ccccc21 | 17.8% |
| O=C(Nc1ccc(-n2ccc(C(F)(F)F)n2)cc1)Nc1cccc(Cl)c1 | 11.3% |
| Brc1ccccc1/C=N/Nc1ccc2ccccc2n1 | 8.41% |
| Cc1cc(OCC(=O)NNC(=S)NC(=O)c2ccc(Br)o2)ccc1Cl | 10.2% |
| CCOC(=O)C1CCN(c2nc(-c3ccccc3)nc3c2oc2ccccc23)CC1.Cl | 10.9% |
| COCCNC(=O)C(C)OC(=O)c1nsc(Cl)c1Cl (stereo not shown) | 5.62% |
| CN(C(=O)COC(=O)c1ccc2c(c1)OCO2)C1CCS(=O)(=O)C1 (stereo not shown) | 11.3% |
| CCCC1(c2ccccc2)NC(=O)NC1=O (stereo not shown) | 18.7% |
| CCn1c(=O)c(C(=O)CN2CCN(S(=O)(=O)c3ccc(C)cc3C)CC2)c(N)n(Cc2ccccc2)c1=O | 7.38% |
| O=[N+]([O-])c1cc(CN2CCCCCC2)ccc1O | 9.7% |

| SMILES | hERG current change (%, negative = inhibition) at 1uM |
| --- | --- |
| CCN1CCN(C(=O)C2c3cc(OC)c(OC)cc3C(=O)N3CCc4ccccc4C23)CC1 (stereo not shown) | 13.6% |
| O=C(CCCCCCC(=O)NCc1ccccc1)NCc1ccccc1 | 17% |
| COc1ccc(NC(=O)CNC(=O)Cn2c(C)cc3ccccc3c2=O)c(OC)c1 | 5.15% |
| CCOC(=O)C1CCN(C(=O)C2CCN(S(=O)(=O)c3cccc4nsnc34)CC2)CC1 | 8.4% |
| Cc1sc(Nc2ccc([N+](=O)[O-])cc2)nc1-c1c(C)n(C)n(-c2ccccc2)c1=O | 2.25% |
| O=C(NC1CCCCC1)N1CCC(c2nc3ccc(Cl)cc3[nH]2)CC1 | 6.29% |
| COc1ccc(-c2nc3c(Br)c(N)c(Br)cc3o2)cc1 | 12.2% |
| COc1ccc(OCCn2nnc(-c3ccc(Cl)cc3)n2)cc1 | 17.8% |
| CC(=O)c1ccc(NC(=S)N2CCCCCC2)cc1 | 12.8% |
| C[N+]1([O-])[C@@H]2Cc3cc4c(cc3[C@@H]1Cc1cc3c(cc12)OCO3)OCO4 (stereo partly shown) | 11.1% |
| O=S1(=O)CCS(=O)(=O)C1c1ccccc1 | 5.85% |
| O=C(c1ccco1)c1cn(Cc2ccccc2Cl)c2ccccc12 | 19.7% |
| O=C(NNc1cc(Cl)cc(Cl)c1)C1CCC1 | 22.4% |
| C/C(=N/NC(=O)c1cccc(N2CCCC2=O)c1)c1ccncc1 | 14.1% |
| CCOc1cc(C)c(Cl)cc1S(=O)(=O)NC1CC(C)(C)NC(C)(C)C1 | 15.1% |
| CC(=O)Nc1ccc(NC(=O)CSc2ccc(-c3cccs3)nn2)cc1 | 7.59% |
| Cc1ccc(S(=O)(=O)N/N=C/c2ccccc2O)cc1 | 4.35% |
| O=c1[nH]ncc(N/N=C\c2ccc(O)cc2O)c1Cl | 9.3% |
| Cc1nc2sccn2c(=O)c1S(=O)(=O)Nc1ccc(N2CCN(S(C)(=O)=O)CC2)cc1 | 7.16% |
| CCOC(=O)c1c(-c2ccc(-c3ccccc3)cc2)csc1NC(=O)CNCCN(C)C.Cl | 9.74% |
| CC(=O)N1c2ccc(S(=O)(=O)NCCC(=O)Nc3ccc(OC(F)(F)F)cc3)cc2CC1C (stereo not shown) | 10.5% |
| O=Cc1ccc(OCC(=O)NCC2CCCO2)cc1 (stereo not shown) | 13.7% |
| CC1(C)CC(=O)C=C(NCCO)C1 | 4.04% |
| COCC(=O)N1CCC(Oc2ccc(C(=O)NCCCC3CCCC3)cc2)CC1 | 7.47% |
| NNC(=O)Cn1nc2n(c1=O)-c1ccccc1SC2 | 18.4% |
| COc1ccc(/C=C(\NC(=O)c2ccco2)C(=O)NCc2ccco2)cc1 | 14.1% |
| C#CCNC(=O)C1=C[C@@H](c2ccc(C#C)cc2)C[C@@H](OCCCCO)O1 | 12.3% |
